Over roughly 33,000 sequences, “E-score (-0.5 to 0.5)” has its median near -0.036; the highest 2% begin near 0.37. The list shows a part of the results.
What follows are sequences tested against T1, Yer064c (UniProt P40041) (assay: PBM E-score (8-mer binding enrichment) (E-score (-0.5 to 0.5)); higher = stronger / more preferred TF binding; most listed sequences are background and not binding sites). Settings: protein concentration: 200 nM; construct: GST-full length.
T1 sequence: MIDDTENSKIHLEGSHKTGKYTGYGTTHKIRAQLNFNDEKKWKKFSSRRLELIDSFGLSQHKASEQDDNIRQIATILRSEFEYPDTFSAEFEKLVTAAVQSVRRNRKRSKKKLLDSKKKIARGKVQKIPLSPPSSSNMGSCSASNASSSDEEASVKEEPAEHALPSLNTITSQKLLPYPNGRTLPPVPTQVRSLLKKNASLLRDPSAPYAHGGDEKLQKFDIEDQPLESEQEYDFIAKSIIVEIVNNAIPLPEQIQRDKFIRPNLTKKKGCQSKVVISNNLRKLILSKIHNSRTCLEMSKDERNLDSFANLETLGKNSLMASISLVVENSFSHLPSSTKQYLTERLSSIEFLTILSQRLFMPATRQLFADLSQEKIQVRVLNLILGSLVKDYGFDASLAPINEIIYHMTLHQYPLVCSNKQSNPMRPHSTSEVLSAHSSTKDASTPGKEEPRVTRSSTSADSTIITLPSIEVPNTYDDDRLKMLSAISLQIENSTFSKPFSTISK
Outline: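 Bound GST-tagged yeast transcription factors, applied at about 100-200 nM to double-stranded universal all-10-mer Agilent arrays, were detected with fluorescent anti-GST. Scans were normalised with masliner. A modified Wilcoxon-Mann-Whitney statistic, the E-score, was assigned to each ungapped eight-base word pooled with its reverse complement by the Universal PBM Analysis Suite.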

Sequence | PBM E-score
GCTGAACC | 0.0762
AAGATTCC | 0.181
ATGAAATC | 0.145
GGAGTACC | 0.0469
ACACCCGA | -0.0679
CGTGTATC | -0.0178
CCAATGAA | -0.158
CCCCCTAC | -0.182
ATATAGTC | 0.403
ACCACTGA | 0.0922
GGAACCGA | -0.232
AGTATATG | -0.0601
CATTGACA | -0.0863
AGGGCGTG | -0.261
CGCCCGGC | -0.0174
CCCTCGTA | -0.256
AACGCCAT | -0.252
CCAACGCG | -0.177
ATGACCAT | 0.192
AACGACGT | -0.16
CTGCATGA | 0.176
CACGAAGG | -0.124

Sequence | PBM E-score
CCCCTAAC | -0.255
CCCGGCGA | -0.17
CATCACAG | -0.14
CTATCTTC | 0.0749
ACGCGAGA | 0.0886
GCAAACGA | 0.0382
AGGACTAT | 0.31
GAAGCGGA | -0.189
GAGCAAAC | 0.00217
AAGTTTTA | 0.068
GTTCGAAA | 0.0265
ATAGGTTC | -0.0381
AACCCCCT | -0.239
CTTATGAA | 0.107
TACAGTAA | 0.128
CGTTATCA | -0.0521
ATTACATG | 0.151
ATGACGGG | 0.0379
CATGGAAG | -0.0616
AAAGTAGC | -0.0562
AAGCAATC | 0.0621
ACTCTGTA | 0.0381

Sequence | PBM E-score
GTGGGGTA | -0.0915
AGAACTCC | -0.157
GAGGTTGC | -0.251
AACATGAA | -0.0474
TGTTCGAA | -0.0433
ACTCGTTG | 0.204
GAAATCGA | 0.0926
CCCTTCGA | -0.181
AGCTTCAA | -0.202
AGAATCCT | -0.0297
TAGTGTCA | 0.147
ATTTTAAC | -0.0572
ATTCACCC | 0.0614
AAGACAGC | -0.197
TCCCGGAA | -0.0771
GGAATTAC | -0.0663
CGAGAGAA | -0.0426
CTCGTTTC | 0.0183
CGAGGCAC | -0.124
CCGTAATA | 0.0217
TACGTTGA | 0.11
AATAGGAT | 0.0023

Sequence | PBM E-score
CGCTCTCA | -0.0828
AATGTGGA | -0.0311
CATTCAGG | -0.0478
ACAGGCAA | -0.167
GACGGGTA | 0.007
CATAGGGC | -0.242
ATTGCCAA | -0.159
ATATGATC | 0.165
AGAGCGGC | -0.239
GCCAAAGA | -0.0953
GTGAAGCA | -0.132
GAATGCGC | -0.204
CGGTGTGA | 0.174
CCTGGGGA | -0.219
ACCGATGC | -0.217
CAAGAGCG | -0.0975
GTAGACAC | 0.0309
CAGGTAAA | -0.0589
CACACCGA | 0.0976
GGTTGACA | 0.0178

— the supplement of paper PMC3334620
